# Assay results: PubChem BioAssay AID624296 (National Center for Advancing Translational Sciences (NCATS), 2012)
# Hit rate of the full screen: of about 350,000 compounds, about 9,900 (2.8%) were called active. The inconclusive results got no clear call from the source; some entries with a clear call stand among them for comparison. Calls follow the shape of the dose curve; as a rule, active = well fitted activation curve with a large enough effect; inconclusive = small, poorly fitted or top-dose-only effect; inactive = no such curve, though single readings can be large or run the other way. Potencies of inconclusive entries are left out as doubtful fits.
# Test: A quantitative high throughput screen for small molecules that induce DNA re-replication in MCF 10a normal breast cells. Also: nearly all actives have a fitted effect of over 50% in size.
# Conditions: MCF 10A DNA re-replication, Hoechst nuclear intensity, 48 h; series mostly up to 46.1 µM
# Potency is read from the fitted curve at half-maximal effect; tags tell the direction and shape of the fitted curve.
row,SMILES,Potency
1,O=CN1Cc2[nH]c3ccccc3c2N(c2ccc(Cl)cc2)C1=O,"inconclusive [activator, single point]"
2,CC(=O)Nc1ccc(NC(=O)C(c2ccccc2)c2ccccc2)cc1,inactive
3,Cc1ccc(S(=O)(=O)N2CCCCCC2)cc1C(=O)NCc1ccccn1,inactive
4,Cc1cc(-c2ccc(Cl)cc2)n2nc(C)cc2n1,"inconclusive [activator, partial curve, poor fit]"
5,N=c1c(C(=O)NCCc2ccccc2)cc2c(=O)n3ccccc3nc2n1CC1CCCO1 (stereo not given),active: 18.4 µM
6,CCOc1cccc(N)c1,inactive
7,CCS(=O)(=O)C1=NN2C(=N)/C(=C\c3ccc(OCCOc4cccc(OC)c4)c(OC)c3)C(=O)N=C2S1,"inconclusive [activator, single point]"
8,COc1ccc(CNC(=O)c2cc3c(=O)n4ccccc4nc3n(CC3CCCO3)c2=N)cc1 (stereo not given),active: 9.2 µM
9,COc1ccc(CNC(=O)CCCn2nc(C)c([N+](=O)[O-])c2C)cc1OC,inactive
10,Cc1cc(C(=O)CN2C(=O)C(=O)N(Cc3ccco3)C2=O)c(C)n1CCc1ccccc1,active: 4.61 µM
11,CC[C@]12c3[nH]c4ccc(Cl)cc4c3CCN1C(=O)[C@@H](CC(=O)NC/C=C(\C)CCC=C(C)C)C[C@@H]2C(=O)N1CCN(C(=O)c2ccco2)CC1,"inconclusive [activator, single point]"
12,CN1/C(=C\C(=O)Nc2ccc(Cl)cc2)C(C)(C)c2ccccc21,"inconclusive [activator, single point]"
13,Cc1ccc(CNC(=O)C(=O)NCC2OCCN2S(=O)(=O)c2ccc(Cl)cc2)cc1 (stereo not given),"inconclusive [activator, partial curve, poor fit]"
14,COc1ccc(C(=O)c2ccc(CC#N)s2)cc1,inactive
15,CCN(CC(=O)Nc1cc(Cl)ccc1C)C(=O)CSCc1ccc(C)cc1,"inconclusive [activator, single point]"
16,Cc1cc(OCC(=O)N(C)C2CCCCC2)cc(C)c1Cl,"inconclusive [activator, partial curve, poor fit]"
17,COc1ccc(/C=N/NC(=O)c2cccc(NC(=O)c3ccc(Cl)cc3)c2)c(OC)c1,"inconclusive [activator, full curve, poor fit]"
18,COc1ccccc1OCC(=O)NNC(=S)NC(=O)c1ccco1,inactive
19,COc1ccc(-c2nn(-c3ccccc3)cc2CN2CCCO2)c(F)c1,"inconclusive [activator, partial curve, poor fit]"
20,COc1cc(NC(=S)NC(=O)c2ccccc2C)ccc1NC(=O)c1cccs1,"inconclusive [activator, single point]"
21,O=C(NCCN1CCN(c2ccccc2F)CC1)C1CCCN(S(=O)(=O)c2cnc[nH]2)C1 (stereo not given),"inconclusive [activator, partial curve, poor fit]"
22,COc1ccc(-c2n[nH]c(=S)n2Cc2ccco2)cc1,inactive
23,Cc1ccc(-c2nn(C)c(=O)c3ccccc23)cc1S(=O)(=O)N1CCOCC1,inactive
24,CCCCn1c(=O)c(-[n+]2ccccc2)c([O-])c2ccccc21,inactive

row,SMILES,Potency
1,Cc1cn(C2CCCO2)c(=O)nc1N (stereo not given),inactive
2,Cc1ccc(SCC(=O)NC2CCCCCC2)cc1,"inconclusive [activator, single point]"
3,COCCN(C(=O)C(C)C)c1nnc(-c2cccc(C)c2)s1,inactive
4,CCCNC(=O)C(CC)NC(=O)c1cccc([N+](=O)[O-])c1 (stereo not given),inactive
5,CCCSc1nnc(Sc2nnnn2-c2ccccc2)s1,"inconclusive [activator, full curve, poor fit]"
6,Cc1nc2c(-c3ccccc3)c(C)[nH]n2c(=O)c1Cc1ccccc1,"inconclusive [activator, partial curve]"
7,C[C@@H]1COC(=O)[C@@H](CC(=O)OC(C)(C)C)C/C=C\C[C@@H](CC(=O)N[C@H](CO)Cc2ccccc2)C(=O)N1,"inconclusive [activator, single point]"
8,CCN(CC)CCN(C(=O)c1ccc(S(=O)(=O)N(C)C2CCCCC2)cc1)c1nc2c(C)cccc2s1,"inconclusive [activator, partial curve, poor fit]"
9,CC1CCC(NC(=O)N(CCCl)N=O)CC1 (stereo not given),inactive
10,COc1ccc(OC)c2[nH]c(C(=O)O)cc12,"inconclusive [activator, partial curve]"
11,COc1ccc(C(=O)Nc2nc3c(s2)CCCC3)cc1S(=O)(=O)N1CCCc2ccccc21,"inconclusive [activator, full curve]"
12,COc1ccc(C(=O)O)cc1NC(=S)NC(=O)CSc1ccc(Cl)cc1,inactive
13,Cc1ccccc1CCN(C(=O)c1csnn1)C(C(=O)NC1CCCC1)c1ccncc1 (stereo not given),"inconclusive [activator, single point]"
14,Cc1ccc(-n2nnc3c(=O)n(CC(N)=O)cnc32)cc1,"inconclusive [activator, single point]"
15,Cc1cc(Br)cc2c(C(=O)NCC3CCCO3)cc(-c3cccs3)nc12 (stereo not given),active: 14.6 µM
16,CCN1C(=O)c2ccc(C(=O)NCc3ccc4c(c3)OCO4)cc2C1=O,inactive
17,CCN(CC)S(=O)(=O)c1ccc(OC)c(NC(=O)c2cn(CC)c3nc(C)ccc3c2=O)c1,inactive
18,C#CCOCCOCCOCCNc1nc(N2CCN(C(=O)CCCCCCCCCCNC(=O)[C@H](CO)n3cc(CCCSC)nn3)CC2)nc(N2CCN(C(=O)CCCCCCCCCCNC(=O)[C@H](CO)n3cc(CCCSC)nn3)CC2)n1,"inconclusive [activator, single point]"
19,CCOC(=O)c1sc(NC(=O)CCN2CCCCCC2)c(C(=O)OCC)c1C,"inconclusive [activator, single point]"
20,Cc1ccc(S(=O)(=O)CCC(=O)Nc2ccccc2Cl)cc1,"inconclusive [activator, single point]"
21,CCCc1[nH]nc2c1C(c1ccc(OC)c(CSC3=NCCS3)c1)C(C#N)=C(N)O2 (stereo not given),"inconclusive [activator, single point]"
22,Cc1ccc(C(=O)O/N=C(\N)Cc2ccc([N+](=O)[O-])cc2)c(Cl)c1,active: 18.4 µM
23,CCN(CC)CC(=O)Nc1sc(C)c(C)c1C(=O)c1ccc(C)cc1,"inconclusive [activator, single point]"
24,COc1ccc(CCNC(=S)NC(=O)c2cc(OC)c(OC)c(OC)c2)cc1OC,"inconclusive [activator, single point]"

row,SMILES,Potency
1,CCOC(=O)[C@H]1[C@H]2COc3ccc(C)cc3[C@@H]2N2C(=O)c3cc(Br)ccc3NC(=O)[C@@]12C,inactive
2,COC(=O)c1ccc2c(=O)n(CCO)c(=S)[nH]c2c1,"inconclusive [activator, partial curve, poor fit]"
3,CCN(CC)C(=O)CSc1nc(Cc2ccccc2)nc2ccccc12,inactive
4,Cc1nnc(C)c2c(C)n(-c3ccccc3)c(C)c12,inactive
5,CCOc1ccc(N(CC)C(=O)CCS(=O)(=O)c2cccc3nonc23)cc1,inactive
6,CSc1ccc(/C=C2/C(=N)N3N=C(CC(=O)N4CCCC4)SC3=NC2=O)cc1,inactive
7,COc1ccccc1N1CCN(Cc2cc(Br)c(O)c3ncccc23)CC1,"inconclusive [activator, single point]"
8,COc1ccc(CCNC(=O)CCN2C(=O)COc3ccc(C)cc32)cc1OC,inactive
9,O=c1[nH]c(=O)n(C2OC(CO)C(O)C2O)cc1F (stereo not given),"inconclusive [activator, full curve, poor fit]"
10,COc1ccccc1-c1noc(CCCC(=O)Nc2ccc(C(N)=O)cc2)n1,"inconclusive [activator, single point]"
11,CCOc1ccc(S(=O)(=O)Nc2cccc(Cl)c2)cc1,inactive
12,CN(C)c1nc(NCc2ccccc2)nc(N/N=C/c2ccc(Cl)cc2Cl)n1,inactive
13,O=C(Nc1cccc(C(F)(F)F)c1)c1cccnc1NCCc1ccccc1,"inconclusive [activator, single point]"
14,COc1ccc(C(CNC(=O)c2cccc(S(=O)(=O)Nc3ccccc3OC)c2)N2CCCC2)cc1 (stereo not given),inactive
15,Cc1cccn2c(=O)c3cc(C(=O)NCCc4ccccc4)sc3nc12,"inconclusive [activator, single point]"
16,CCn1c(O)c(/C=C2\C=NN=C2c2ccc(C)cc2)sc1=S,"inconclusive [activator, single point]"
17,O=C(Nc1ccccc1)Nc1cccn(Cc2c(F)cccc2Cl)c1=O,"inconclusive [activator, single point]"
18,O=C(N/C=N/OCc1ccc(Cl)cc1Cl)NOCc1c(Cl)cccc1Cl,"inconclusive [activator, single point]"
19,O=C(c1csc2c1CCCC2)N1CCN(c2ccccc2)CC1,"inconclusive [activator, single point]"
20,COc1cc([N+](=O)[O-])ccc1NC(=O)COC(=O)CCOc1ccc(C)cc1,"inconclusive [activator, full curve]"
21,O=C(Cc1cn(Cc2cccc(Cl)c2)c2ccccc12)N1CCCC1,"inconclusive [activator, partial curve, poor fit]"
22,CCN1C(=O)N[C@@H](c2cccc(F)c2)C(C(C)=O)=C1C,"inconclusive [activator, full curve, poor fit]"
